In all, about 110,000 compounds went through this assay and about 230 (0.21%) showed an effect of 50% or more. This is one part of the list.
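Further: 30 min substrate incubation versus DMSO and 10 µM JCP410 controls.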

DPAP1, sequence (Q8IIJ9 whole entry, looked up): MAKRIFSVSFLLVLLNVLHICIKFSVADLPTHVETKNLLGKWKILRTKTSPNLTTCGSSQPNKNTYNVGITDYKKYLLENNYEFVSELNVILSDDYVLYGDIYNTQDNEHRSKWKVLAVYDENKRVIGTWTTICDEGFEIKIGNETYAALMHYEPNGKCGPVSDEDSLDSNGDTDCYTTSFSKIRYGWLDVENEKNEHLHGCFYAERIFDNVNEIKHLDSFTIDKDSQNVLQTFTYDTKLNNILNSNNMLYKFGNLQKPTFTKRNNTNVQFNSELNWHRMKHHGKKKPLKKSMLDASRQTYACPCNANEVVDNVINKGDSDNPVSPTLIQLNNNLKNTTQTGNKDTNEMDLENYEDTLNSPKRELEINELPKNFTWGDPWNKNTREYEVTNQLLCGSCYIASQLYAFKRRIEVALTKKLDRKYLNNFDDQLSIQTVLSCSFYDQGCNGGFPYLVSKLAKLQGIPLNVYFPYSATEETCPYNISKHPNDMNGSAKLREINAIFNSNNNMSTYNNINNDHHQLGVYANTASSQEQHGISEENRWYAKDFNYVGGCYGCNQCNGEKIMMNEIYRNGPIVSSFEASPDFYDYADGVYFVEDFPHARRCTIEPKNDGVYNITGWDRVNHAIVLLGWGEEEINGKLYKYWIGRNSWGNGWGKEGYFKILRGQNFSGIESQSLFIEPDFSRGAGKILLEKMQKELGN

The experiment addresses DPAP1 (Plasmodium falciparum, UniProt Q8IIJ9). The experiment in a line: primary screen, percent inhibition; read by cleavage of a fluorogenic dipeptide substrate; higher = more effect of the substance. Also noted: species or system P. falciparum D10 trophozoite lysates; single well.
Take `COc1ccc(/C(O)=C/C=N/c2cc(C(C)(C)C)on2)cc1`: the “% Inhibition @ 10 uM” value is -15.2%.
In the case of `CC(=O)C1=C(NCc2nc3ccccc3[nH]2)CC(C)(C)CC1=O` it was 2.99%.
The figure for `Cc1oc(-c2cccc(Cl)c2)nc1CS(=O)(=O)CC(=O)NCc1ccc2c(c1)OCO2` is -1.43%; for `O=C(CCn1ccc2cc(S(=O)(=O)N3CCCC3)ccc21)NCCc1cccs1` it is 1.11%.
With `CC(C)c1ccc(S(=O)(=O)c2nnn3c2nc(NCc2ccccc2)c2sccc23)cc1`, the “% Inhibition @ 10 uM” value is recorded as -2.55%.
Turning to `CC(C)(C)OC(=O)N1CCC(c2nc(N3CCOCC3)ncc2C(=O)O)CC1`, the “% Inhibition @ 10 uM” value is given as -6.62%.
With `CC1=CC(c2ccccc2)n2nc(N3C(=O)C4CCCCC4C3=O)nc2N1` (stereo not shown), the “% Inhibition @ 10 uM” value is 3.25%.
The figure for `CC(C)C[C@H](NC(=O)c1ccc(-c2ccccc2-c2ccccc2)cc1)C(=O)NCC#N` is -1.41%; for `CSc1ccccc1NC(=O)c1sccc1C` it is 2.51%; for `COc1ccccc1NC(=O)C1=C(C)Nc2ncnn2C1c1ccc(OCc2ccccc2)cc1` (stereo not shown) it is 5.37%.
For `CC(NC(=O)CCC(=O)NC(C)c1ccccc1)c1ccccc1` (stereo not shown), the “% Inhibition @ 10 uM” value was -14.3%.
The figure for `CSc1ccc(CCNCc2c(C(=O)O)c(C)n(Cc3c(F)cccc3Cl)c2C)cc1` is -5.49%; for `CC(C)Oc1ccc(/C=C2/NC(=O)NC2=O)cc1` it is -4.93%; for `COc1ccc(S(=O)(=O)CC(=O)c2cc3cccc(C)c3oc2=O)cc1` it is -1.47%.
The figure for `CC1CC(Nc2ccccc2)c2ccccc2N1C(=O)c1ccc(Br)cc1` (stereo not shown) is 1.35%; for `CC(=O)Nc1nc2ccccc2n1Cc1ccccc1` it is 6.04%.
Consider `Cc1sc2nc(SCc3ccccc3)n(C)c(=O)c2c1C`, for which the “% Inhibition @ 10 uM” value is given as 3.92%.
The figure for `Fc1ccccc1N1CCN(Cc2cccc(C(F)(F)F)c2)CC1` is -0.127%.
With `COc1ccc(C2CC(C(F)(F)F)n3ncc(C(=O)N(C)Cc4ccccc4)c3N2)cc1OC` (stereo not shown), the “% Inhibition @ 10 uM” value came out at 3.25%.
The figure for `O=C(Cn1nc(C(F)(F)F)cc1C1CC1)Nc1ccc(F)c(Cl)c1` is 2.4%; for `Cc1ccc2c(c1)c1nc3ccccc3nc1n2CC(=O)O` it is -2.98%; for `CS/C(=N\C(CC1CCCCC1)C(=O)NCC#N)NS(C)(=O)=O` (stereo not shown) it is -4.82%.
Consider `COc1ccc(NC(=O)CSc2nnnn2-c2ccccc2)cc1`, for which the “% Inhibition @ 10 uM” value worked out at 5.2%.
For the compound `CCC(=O)N1C(C(=O)NCCc2ccc(Cl)cc2)CSC12CCN(C)CC2` (stereo not shown), the “% Inhibition @ 10 uM” value is 1.11%.
In the case of `COc1ccc(CCNC(=O)C(C(C)C)N2C(=O)c3ccccc3C2=O)cc1` (stereo not shown) it was -4.16%; in that of `COc1cccc(-c2cc(C(=O)Nc3ccc(S(N)(=O)=O)cc3)c3ccccc3n2)c1`, 5.44%.
The figure for `CCOC(=O)c1ncn(-c2ccccc2)n1` is -2.78%; for `COc1cc(CO)ccc1OCc1ccc(Cl)cc1` it is -1.38%; for `COc1ccc(Sc2ccccc2CC#N)cc1` it is 0.0974%.
The figure for `Cc1nnc2c3ccccc3nc(N(C)C3CCCCC3)n12` is -7.08%.
For the compound `CCn1ncc(/C=c2/sc3n(c2=O)C(c2ccc(C)o2)C(C(=O)Nc2ccccc2)=C(C)N=3)c1C` (stereo not shown), the “% Inhibition @ 10 uM” value is listed as 0.727%.
In the case of `CCC(=O)N1N=C2c3cc(OC)ccc3CCC2C1c1ccccc1` (stereo not shown) it was 0.812%.
In the case of `N#Cc1sc2nc3c(cc2c1N)CCC3` it was -2.81%; in that of `CC1=C(C(=O)N2CCCCCC2)C2(CCCCC2)OC1=O`, 1.55%; in that of `COc1ccccc1C(=O)N/C(=C\c1ccc2c(c1)OCO2)C(=O)O`, 7.1%.
With `CCc1nc(SCC(=O)Nc2ccc(OC)cc2)c(C#N)cc1C`, the “% Inhibition @ 10 uM” value was -9.55%.
The figure for `Cc1ccc(N(CC(=O)NCc2ccco2)S(=O)(=O)c2ccccc2)cc1C` is 2.37%; for `NS(=O)(=O)c1ccc(CCNC(=O)CSc2ncccc2C(=O)O)cc1` it is -5.92%; for `CCOC(=O)c1c(NC(=O)CSc2nnc3c(n2)[nH]c2ccccc23)sc2c1CCN(C)C2` it is 26.4%.
In the case of `O=C1C2C3CCC(C3)C2C(=O)N1c1ccc(O)cc1` (stereo not shown) it was -4.72%; in that of `Cc1ccc(CNC(=O)CCCCCNc2nc(S)nc3ccccc23)cc1`, 7.04%.
Regarding `COc1ccc(Br)cc1CN1CCC2(C=Cc3ccccc32)CC1`, the “% Inhibition @ 10 uM” value worked out at 0.0792%.
In the case of `O=C(CCCOc1ccc(Cl)cc1Cl)N1CCCC1` it was 4.66%; in that of `S=C1N(CN2CCOCC2)CCN1CN1CCOCC1`, -4.35%.
Regarding `c1ccc2c(c1)-c1ccccc1C2n1ccnc1`, the “% Inhibition @ 10 uM” value is 3.05%.
In the case of `CC1(C)CC(NC(=O)C(C)(C)Oc2ccc(Cl)cc2)CC(C)(C)N1` it was -7.31%.
In the case of `COc1ccc2c(=O)cc(-c3ccccc3)n(C)c2c1` it was -3.23%; in that of `CCCSC1=C(C#N)C(c2ccccc2Cl)CC(=O)N1` (stereo not shown), -4.08%; in that of `Oc1nc(-c2ccccc2)nc(O)c1-c1ccccc1`, 5.84%.
In the case of `O=C(CSCc1cnn(-c2ccccc2)c1-n1cccc1)NCc1ccc2c(c1)OCO2` it was -1.08%; in that of `O=C(COc1ccc(Cl)cc1)Nc1ccc(S(=O)(=O)Nc2ccc(F)cc2)cc1`, -2.03%; in that of `CCCN1CCC(N2CCC(C(=O)OCC)CC2)CC1`, -3.6%.
`Cc1ccc(S(=O)(=O)c2nnn3c2nc(N(C)Cc2ccccc2)c2sccc23)cc1`: the “% Inhibition @ 10 uM” value is 2.75%.
On to `COc1ccc(/C=C2/SC(=O)N(Cc3cccc(C(=O)O)c3)C2=O)cc1`, for which the “% Inhibition @ 10 uM” value came to 1.21%.
In the case of `O=C(NCc1nnc(SCC(=O)N2CCOCC2)o1)c1ccccc1F` it was -3.39%; in that of `CC(C)Cn1c(=O)c2ccccc2n2c(CCC(=O)O)nnc12`, -9.31%.
In the case of `Cc1cc(C)c2nc(N3CCCC(C(=O)NC(C)c4ccccc4)C3)sc2c1` (stereo not shown) it was 4.95%; in that of `CCOc1ccccc1C1C2=C(O)CC(c3ccccc3)CC2=NC(C)=C1C(=O)OC` (stereo not shown), 2.45%.
The figure for `CCNC(=O)/C(=C\c1ccc(OC)cc1)NC(=O)c1ccc(Br)cc1` is 2.36%; for `N#Cc1cccc(NC(=O)c2cccnc2)c1` it is -3.39%.
Regarding `O=C(CSc1nc2ccccc2s1)NC1CCCCC1`, the “% Inhibition @ 10 uM” value is 0.526%.
The figure for `COc1ccccc1NCN1C(=O)S/C(=C/c2ccc(F)cc2)C1=O` is -1.32%; for `Cc1cc2ccccc2n1CCNC(=O)C(=O)c1cn(CC(=O)N2CCOCC2)c2ccccc12` it is 4.59%.
In the case of `O=C(NCCO)c1nnc(Cc2c(F)cccc2Cl)o1` it was -3.9%.

The values above are taken from PMC6919601, “Identification of Plasmodium dipeptidyl aminopeptidase allosteric inhibitors by high throughput screening” (PLoS ONE, 2019).
